In PubChem BioAssay AID488969 (Vanderbilt High Throughput Screening Facility, 2010):
The full ranking holds about 110,000 compounds; the median of “z-score” is about -0.1, and the highest 2% start at about 2. The list shows a part of the results. Calls of active or inactive are those of the source.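 How the source made its calls: active means z-score in the third read window above 3 or below -3; inactive means the rest.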

Biological target: Metabotropic glutamate receptor 8 (Rattus norvegicus) (UniProt P70579)
UniProt P70579, sequence (P70579 whole entry, looked up): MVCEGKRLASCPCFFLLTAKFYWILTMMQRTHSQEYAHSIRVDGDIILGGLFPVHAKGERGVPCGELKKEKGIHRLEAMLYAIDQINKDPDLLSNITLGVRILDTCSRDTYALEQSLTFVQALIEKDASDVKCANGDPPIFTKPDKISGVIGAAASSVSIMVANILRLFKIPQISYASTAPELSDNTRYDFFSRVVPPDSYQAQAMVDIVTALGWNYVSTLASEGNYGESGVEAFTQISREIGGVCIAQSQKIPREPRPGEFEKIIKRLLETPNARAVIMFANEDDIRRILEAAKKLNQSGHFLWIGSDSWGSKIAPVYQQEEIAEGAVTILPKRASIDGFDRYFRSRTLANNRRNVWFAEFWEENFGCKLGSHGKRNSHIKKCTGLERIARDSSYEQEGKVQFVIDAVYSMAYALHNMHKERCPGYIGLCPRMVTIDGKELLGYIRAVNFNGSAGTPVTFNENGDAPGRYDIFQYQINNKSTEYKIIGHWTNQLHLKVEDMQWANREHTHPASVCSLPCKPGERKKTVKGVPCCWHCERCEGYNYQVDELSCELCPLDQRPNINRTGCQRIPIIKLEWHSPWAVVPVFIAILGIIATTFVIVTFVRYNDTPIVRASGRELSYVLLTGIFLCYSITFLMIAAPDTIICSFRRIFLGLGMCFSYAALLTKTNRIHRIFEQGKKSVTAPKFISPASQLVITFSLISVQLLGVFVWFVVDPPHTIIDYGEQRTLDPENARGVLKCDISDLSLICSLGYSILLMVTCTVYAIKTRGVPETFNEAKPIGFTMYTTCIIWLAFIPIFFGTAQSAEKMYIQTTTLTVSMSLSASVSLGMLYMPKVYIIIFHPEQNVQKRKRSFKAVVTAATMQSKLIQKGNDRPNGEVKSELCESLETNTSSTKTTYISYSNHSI
Experiment: rat mGluR8 modulators via GIRK flux, primary screen, cell-based, thallium flux, HTS (AID 488969)
Details: HEK293 rat mGluR8, GIRK (G protein-gated inwardly rectifying potassium channel) thallium flux, FluoZin2; at 10 µM; stronger effect = higher value; submaximal glutamate (EC20) added with thallium

SMILES | z-score
Cc1ccc(C(=O)/C=C/c2ccc(-c3ccc(C)cc3)o2)cc1 | -0.0351
COc1ccc(S(=O)(=O)N2CCC(C(N)=O)CC2)cc1 | 0.189
CCOCCCNC(=O)CCSc1ccc(C)cc1 | -0.127
COc1cc(/C=N/S(=O)(=O)CCc2ccccc2)ccc1O | -0.181
CCOC(=O)CNC(=O)C(CC(C)C)NC(=O)C1CCCCC1 (stereo unspecified) | -0.311
COc1ccc(/C=N/NC(=O)c2cccnc2)cc1CSc1nc2ccccc2s1 | -0.0351
COC(=O)c1ccc(C(=O)OC)c(NS(C)(=O)=O)c1 | 0.124
CCOC(=O)CSc1nc2ccccc2c(=O)[nH]1 | -0.114
Cc1cccnc1NC(=S)NC(=O)c1cncc(Br)c1 | -0.14
O=C(CSc1nnnn1-c1ccc(Cl)cc1)N1CCc2ccccc2C1 | -0.679
CCOCCCNC(=O)C(c1ccccc1)N(Cc1ccc2c(c1)OCO2)C(=O)CNC(C)=O (stereo unspecified) | 1.03
CCOc1ccc2nc(COC(=O)c3cccs3)c(C(=O)c3ccccc3)[n+]([O-])c2c1 | -0.436
CN(C1CCCCC1)S(=O)(=O)c1ccc(S(=O)(=O)N2CCCC2)cc1 | -0.243
Cc1cc(C)c[n+](C(C)C(=O)c2ccc(-c3ccccc3)cc2)c1 (stereo unspecified) | -0.82
COc1cc(CCN2C(=O)c3cccc4cccc(c34)C2=O)c(S(=O)(=O)NCCCO)cc1OC | 0.452
Cc1onc(-c2ccccc2)c1C(=O)NCc1ccccn1 | -0.395
CC(C)Oc1ccc(/C(O)=C2/C(=O)C(=O)N(Cc3cccnc3)C2c2ccco2)cc1 (stereo unspecified) | -0.11
CC(C)c1ccc(C2CC(=O)c3cnc(N4CCc5ccccc5C4)nc3C2)cc1 (stereo unspecified) | -0.0129
O=C(Nc1ccc(N2CCOCC2)c(Cl)c1)c1ncn[nH]1 | -0.473
O=C(/C=C/c1ccc(Cl)cc1Cl)N1CCc2ccccc21 | -0.126
CCOC(=O)N1CCN(C(=O)CN(c2ccc(Cl)c(C(F)(F)F)c2)S(C)(=O)=O)CC1 | 0.0949
O=C(Nc1ccc(Br)cc1)c1ccccc1CC[N+](=O)[O-] | -0.112
CCn1c(SCC(=O)N/N=C/c2ccc(OC)c(OC)c2)nc2ccccc21 | -0.299

SMILES | z-score
O=C(CSc1c[nH]c2ccccc12)N1CCCc2ccccc21 | -0.147
COc1ccc(-n2c(Cc3cccn3C)nnc2SCC(=O)Nc2cccc(Cl)c2)cc1 | -0.585
COc1ccc2[nH]c(=O)c(CN(C(=O)c3ccco3)C3CCCCC3)cc2c1 | -1.83
CCCOc1ccc(Br)cc1/C=N/NC(=O)c1cc(OC)c(OC)c(OC)c1 | -0.175
COc1ccc(CC(=O)N2CCOCC2)cc1 | 0.451
CCCCCOC(=O)Cn1c(=O)oc2ccc(C)cc21 | 0.104
Cc1cc(=O)oc2cc(NC(=O)c3cc4ccccc4o3)ccc12 | -0.406
CCNc1ccc(Br)cc(C(=O)/C=C/c2ccc3c(c2)OCO3)c1=O | -0.591
COc1cc(C(=O)NCc2cn3ccsc3n2)cc(OC)c1OC | -0.0269
CCCCCSc1nnc2c(n1)OC(C)N(C(C)=O)c1ccccc1-2 (stereo unspecified) | -0.271
COC(=O)N/N=C(\C)c1ccc(C)c([N+](=O)[O-])c1 | 0.166
Cc1ccc(/C=c2/sc3n(c2=O)CCCN=3)o1 | -1.36
CCCn1c(N)c(Sc2ccccc2)c(=O)n(CCC)c1=O | -0.0906
Cc1ccc(S(=O)(=O)Nc2ccc(-c3csc(-c4ccccc4)n3)cc2)cc1 | -0.203
CCN(CC)S(=O)(=O)c1ccc2c(c1)nc(SC(C)C(N)=O)n2-c1ccc(OC)cc1 (stereo unspecified) | -0.562
Cc1cc(C)c(C(N)=O)c(NC(=O)Nc2ccccc2Cl)n1 | -0.272
Cc1ccc(Nc2nc(CSc3nnc(-c4ccc(F)cc4)n3C)cs2)cc1 | -0.652
O=S(=O)(CCSc1ccccn1)c1nc2ccccc2s1 | -0.489
COc1ccccc1OCCCOc1c(Cl)cc(C)cc1Cl | -0.206
CCOc1ccc(CN(C)CC(=O)Nc2ccc(N3CCOCC3)cc2)cc1OC | 0.124
O=C(CSc1nnc(-c2ccco2)o1)NCC(=O)c1ccccc1 | -0.0835
CCCn1c(C)cs/c1=N\C(=S)Nc1ccccc1 | 0.291
CC1=NN(C(=O)c2csc(C)c2)C(O)(C(F)(F)F)C1 (stereo unspecified) | -0.22

SMILES | z-score
CC1CCc2cc(F)ccc2N1C(=O)c1ccc2c(c1)OCO2 (stereo unspecified) | -0.0933
CCCN1CNC(=S)N(c2ccc(C(=O)OCC)cc2)C1 | -2.04
CCOc1ccccc1NC(=O)C1CCCCN1S(=O)(=O)c1ccc(F)cc1 (stereo unspecified) | -0.124
COc1ccccc1N1CC(C(=O)Nc2ccc(S(=O)(=O)N3CCOCC3)cc2)CC1=O (stereo unspecified) | -0.236
Cc1cccc(-n2c(SCC(=O)NCc3ccc4c(c3)OCO4)nc3ccccc3c2=O)c1 | 0.458
COc1cccc(NC(=S)NCCCN2CCOCC2)c1 | -0.219
COC(=O)C1=C(C(=O)c2ccc(C)cc2)C(c2ccc(OC)c(OC)c2)n2nnnc2N1 (stereo unspecified) | 0.358
COc1ccc(/C=N\NS(=O)(=O)c2ccc(Cl)cc2)cc1COc1ccccc1[N+](=O)[O-] | -0.168
CCCCn1nnnc1SCC(=O)Nc1ccc2c(c1)OCO2 | -0.377
O=C(NCCCn1ccnc1)C(=O)NCC1OCCCN1S(=O)(=O)c1ccc(Cl)cc1 (stereo unspecified) | -0.242
CCOC(=O)Cc1csc(SCC(=O)/C(C#N)=C(\C)N)n1 | 0.102
O=C(Cc1cccs1)NCC1CCCO1 (stereo unspecified) | 0.0378
c1ccc(-n2ncc3c(N4CCCCC4)ncnc32)cc1 | -0.259
Cc1ccc(CNC(=O)COc2ccc(S(=O)(=O)NC(C)C)cc2)cc1 | 0.318
COc1ccccc1CNc1nc2nc(C)cc(=O)n2[nH]1 | -0.451
O=C(Nc1ccc2oc(=O)ccc2c1)c1cccnc1Cl | 0.132
Cc1cc(C)cc(CSCC(=O)N/N=C/c2ccc(OCC(=O)NCc3ccco3)cc2)c1 | -0.748
COC(=O)c1cc(NC(=O)Cc2ccc(OC)cc2)cc(C(=O)OC)c1 | -0.475
O=C(CCCn1c(=S)[nH]c2cc3c(cc2c1=O)OCO3)N1CCN(c2ccccc2)CC1 | -0.724
O=C(Nc1ccc(F)cc1)c1ccccc1S(=O)(=O)c1ccccc1[N+](=O)[O-] | -0.304
CCNc1nc(N)nc(Oc2ccc(OCc3ccccc3)nn2)n1 | 0.086
COC(=O)c1ccc(Cl)c(NC(=O)CN2CCC(C)CC2)c1 | -0.182
O=C(O)C1CSC(c2ccccc2)N1C(=O)c1ccco1 (stereo unspecified) | 0.883

SMILES | z-score
COc1ccccc1N=c1oc2c(OC)cccc2cc1C(=O)NCc1ccco1 | -0.0584
CC12CCC(C(=O)NC(c3ccccc3)c3ccccc3)(OC1=O)C2(C)C (stereo unspecified) | -0.0545
Cn1nnnc1SCc1cc(=O)[nH]c2ccccc12 | -0.491
O=S(=O)(Nc1ncccc1O)c1ccc(Cl)cc1 | 0.0829
Cc1ccc(NC(=O)C(C)Sc2nnc(-c3cccnc3)o2)cc1 (stereo unspecified) | 0.0967
CC(C)(NO)/C(=N\O)c1ccccc1 | -0.27
Cc1cc(CSc2ccccc2)ccc1NC(=O)c1cccc([N+](=O)[O-])c1 | -0.274
O=C(N/N=C/c1sc2ccccc2c1O)c1cccc2ccccc12 | 1.11
COc1ccccc1/C=N/NC(=O)c1nnn(-c2nonc2N)c1CSC1=NCCS1 | -0.162
Cc1ccc(C)c(NC(=S)c2ccccn2)c1 | -0.333
Cc1c(S(=O)(=O)Nc2cccc(Cl)c2)c(=O)n(C)c(=O)n1C | 0.101
CCCNC(=S)NC1CC2CCCC(C1)N2CC(C)C (stereo unspecified) | -0.137
O=C(OCc1nnc(-c2ccccc2)o1)c1ccc2c(c1)OCCO2 | -0.434
COc1ccc(C(C(=O)NC2CCCC2)N(C(=O)c2ccoc2C)c2ccccc2)cc1 (stereo unspecified) | -0.161
O=C(CCNC(=O)c1ccc(Br)o1)NCc1ccccc1Cl | -0.183
Cc1cc(C)nc(SCc2csc(N)n2)n1 | -0.365
CCOC(=O)n1c(=O)n(Cc2ccc(Cl)c(Cl)c2)c2ccccc21 | -0.535
O=[N+]([O-])c1ccc(COc2ccc(-c3[nH]ncc3-c3ccc(Cl)cc3)c(O)c2)cc1 | -0.184
O=C(C1CCC(CNS(=O)(=O)c2cccs2)CC1)N1CCCCC1 (stereo unspecified) | 0.488
CCOc1ccc2[nH]c(=O)c(CN(CCc3ccccc3)C(=O)N3CCOCC3)cc2c1 | -0.459
O=C(Cn1cc([N+](=O)[O-])cn1)NCC1CCCO1 (stereo unspecified) | 0.0785
Cn1c(=N)n(CC(=O)C(C)(C)C)c2ccccc21 | 0.00661
CCCCNC(=O)/C(C#N)=c1\s/c(=C\c2ccccc2OC(F)F)c(=O)n1CCCOC | -0.191

SMILES | z-score
O=C(NCc1ccccc1)c1ccc(-c2ccccc2F)o1 | active: -3.25
Cc1nn(C(C)(C)C)c(OC(=O)c2ccc3c(c2)OCO3)c1Sc1ccccc1 | 0.0484
COC(=O)[C@@H](NC(=O)NCc1ccccc1F)C(C)C | -0.026
COc1ccc(OC)c(N(CC(=O)N2CCN(c3cc(Cl)ccc3C)CC2)S(C)(=O)=O)c1 | 0.911
CC(C)(O)C(=O)NN(C(=O)c1ccccc1)c1cccc(Br)c1 | 0.292
CCOc1ccc(C(=O)NCC(=O)OC2CCOC2=O)cc1OCC (stereo unspecified) | -0.823
COc1cc(C2CC(=O)N3CN(Cc4ccco4)CSC3=C2C#N)ccc1OCc1ccccc1 (stereo unspecified) | -0.175
CNC(=O)CC12CC3CC(CC(C3)C1)C2 | 0.549
O=C(c1ccccc1)N1CCC(O)(c2ccc3c(c2)OCO3)CC1 | 0.951
CCOC(=O)c1c(NC(=O)COC)sc2c1CCCC2 | -1.83
Cc1ccc(C(=O)CCCn2nnc(-c3cccnc3)n2)cc1C | -0.153
CCOC(=O)CC1C(C(=O)OCC)ON2OC(C(=O)OC)C(C(=O)OCC)C12 (stereo unspecified) | -0.526
CCOc1ccc(NC(=O)CC2C(=O)N(c3ccccc3)C(=O)N2CCc2cccs2)cc1 (stereo unspecified) | -0.174
CCOC(=O)c1ccc(N2C(=O)CC(N3CCOCC3)C2=O)cc1 (stereo unspecified) | -0.0659
Cc1cccc(NC(=O)c2ccccc2O)c1C | -0.151
c1ccc(CNc2nc3ccccc3n3cnnc23)cc1 | -0.114
O=C(NCc1ccco1)C1Cc2ccccc2CN1S(=O)(=O)c1ccccc1F (stereo unspecified) | -0.134
CS(=O)(=O)N(CC(=O)Nc1c(F)cccc1F)c1cccc([N+](=O)[O-])c1 | 0.0303
CCNC(=O)c1ccc(-n2nc(C)cc2-c2ccccc2)cc1 | -0.263
